Experimental data: PubChem BioAssay AID463173 (ICCB-Longwood Screening Facility, Harvard Medical School, 2010)
About 1,700 (3.3%) of roughly 52,000 compounds were called active. No stated cut-off is given here; in the data, active means survival mostly below about 52% (no sharp cut-off); inactive means mostly above about 56%. The list shows a part of the results.

Test system: Wild type
Test: growth inhibition of S. aureus wild type versus tarO mutant, primary screen, teichoic acid synthesis inhibitors, RN4220, OD600 (AID 463173)
Details: S. aureus RN4220 wild type/DeltatarO growth, OD600, 18 h, active compounds read low, screened at 18.75 µg/mL (by protocol)

| SMILES | survival |
| --- | --- |
| COC(=O)CSc1nc2ccccc2s1 | inactive: 112% |
| Cc1cccc(N2CCN(C(=O)c3cc4c(=O)oc5ccccc5c4s3)CC2C)c1 (stereo not drawn) | inactive: 63% |
| COc1ccc(CNS(=O)(=O)c2cc3c(cc2C)n(C)c(=O)c(=O)n3C)cc1 | inactive: 77% |
| CC(C)CN(CC(C)C)C(=O)C1CCCN(S(=O)(=O)c2ccc3c(c2)oc(=O)n3C)C1 (stereo not drawn) | inactive: 86% |
| COc1cccc(NC(=O)c2nn(-c3ccc(C)cc3)c(=O)n(C)c2=O)c1 | inactive: 135% |
| Cc1cc(C)c2nc(N3CCCC(C(=O)NCc4cccc(Cl)c4)C3)sc2c1 (stereo not drawn) | inactive: 76% |
| Cc1ccc(NS(=O)(=O)c2ccc3c(c2)NC(=O)C(C)C(=O)N3)cc1F (stereo not drawn) | inactive: 86% |
| Cc1ccc(NC(=O)CSc2cc(=O)n(C)c3ccc(Cl)cc23)c(Br)c1 | inactive: 81% |
| CCc1ccc(CNC(=O)c2ccc3nc(SCc4ccc(F)cc4)n(C)c3c2)cc1 | inactive: 136% |
| CC(NC(=O)c1ccc2c(c1)N(Cc1cccc(F)c1)C(=O)c1ccccc1S2)c1ccccc1 (stereo not drawn) | inactive: 71% |
| Cc1ccc(NC(=O)c2cnn(-c3ccc(C)c(C)c3)c2C2CCN(C(=O)OC(C)(C)C)CC2)c(C)c1 | inactive: 137% |
| Cc1cccc(NC(=O)Cn2c(=O)n(CCC(C)C)c(=O)c3cccnc32)c1 | inactive: 132% |
| CCCCN(C)CCNC(=O)c1c(C)oc2ncnc(N3CCOCC3)c12 | inactive: 74% |
| Cc1oc2ccc(O)c(CN3CCOCC3)c2c1C(=O)Nc1ccccc1 | inactive: 91% |
| Cc1ccc(CNc2ccc(-c3nc(C(C)C)no3)cc2[N+](=O)[O-])cc1 | inactive: 76% |
| COc1cc(NC(=O)CN2C(=O)C(c3ccc(C)cc3)=NC23CCCCC3)cc(OC)c1 | inactive: 84% |
| Cc1ccc(-n2nc(C(=O)N3CCN(c4cccc(C(F)(F)F)c4)CC3)c(=O)n(C)c2=O)cc1 | inactive: 97% |
| O=C(CCSCCc1ccccn1)Nc1cc(F)ccc1F | inactive: 71% |
| Cc1ccc(-n2c(=O)c3c(c4cc(C)ccc4n3C)n(CC(=O)Nc3c(C)cccc3C)c2=O)cc1 | inactive: 124% |
| O=c1c2sc3ccccc3c2n(Cc2ccccc2F)c(=O)n1Cc1ccccc1 | inactive: 77% |
| CCC(CC)C(=O)Nc1cc(-c2cccc(C)c2)nn1-c1ccccc1 | inactive: 69% |
| COc1cccc(CNC(=O)C2CCN(C(=O)N3CCOc4ccc(Cl)cc43)CC2)c1OC | inactive: 115% |

| SMILES | survival |
| --- | --- |
| COc1ccc(Cl)cc1NC(=O)c1cc(C)nc2c1c(C)nn2-c1ccccc1 | inactive: 120% |
| CC1=C(C(=O)Nc2ccccc2)C(c2cccnc2)n2nc(SCc3ccccc3F)nc2N1 (stereo not drawn) | inactive: 69% |
| O=c1c2cnn(-c3ccc(Cl)cc3)c2ncn1Cc1ccc(Cl)cc1Cl | inactive: 92% |
| Cc1nc2c(C(=O)NCc3ccccc3)cnn2c(C)c1Cc1ccc(F)cc1 | inactive: 84% |
| Cc1ccc(Cn2c(=O)n(Cc3ccco3)c(=O)c3sc4ccccc4c32)cc1 | inactive: 94% |
| CCCCC(=O)Nc1cc(C)c(O)c(-c2nc3ncccc3o2)c1 | inactive: 158% |
| Cc1cccc(C(=O)Nc2cc3c(cc2N2CCCCC2)n(C)c(=O)c(=O)n3C)c1 | inactive: 87% |
| O=C(CCN1CCCCC1)c1ccccc1 | inactive: 92% |
| CC(=O)N1CCC2(CC1)OC(=O)C(C)=C2C(=O)Nc1cccc(Cl)c1C | inactive: 82% |
| O=C1N=C2C=CC=CN2C(=O)C1Cc1ccccc1 (stereo not drawn) | inactive: 92% |
| O=C(CC1N=C2c3ccccc3N=C(SCc3ccccc3F)N2C1=O)NCCc1ccccc1 (stereo not drawn) | inactive: 97% |
| CCOC(=O)Cn1cc(C#N)c2ccccc21 | inactive: 98% |
| Cc1ccsc1CCN1C(=O)N(c2ccccc2)C(=O)C1CC(=O)Nc1ccc(F)cc1 (stereo not drawn) | inactive: 119% |
| COc1ccc(CCC(=O)NCc2ccc3c(c2)CCN3C(=O)c2ccc(F)cc2)cc1 | inactive: 67% |
| COc1ccc(-c2nc3cc(NC(=O)Cc4ccc(Cl)cc4)ccc3o2)cc1OC | inactive: 73% |
| Cc1ccc(Cl)cc1Nc1nc2ccccc2c2nncn12 | inactive: 92% |
| Cc1ccc(CCNC(=O)CCN2N=C(c3ccc(C)cc3)CCC2=O)cc1 | inactive: 136% |
| Cc1cccc(C)c1NC(=O)c1ccc2c(c1)N(Cc1cccc(Cl)c1)C(=O)c1ccccc1S2=O (stereo not drawn) | inactive: 145% |
| CCOC(=O)c1ccc(NC(=O)Cn2nc(SC)c(S(=O)(=O)c3ccc(Cl)cc3)c2N)cc1 | inactive: 64% |
| CC(C)CC(=O)Nc1nnc(S(=O)(=O)N2CCCCCC2)s1 | inactive: 116% |
| Cc1ccc(C(=O)N(Cc2sccc2C)C2CCS(=O)(=O)C2)cc1 (stereo not drawn) | inactive: 95% |
| Cc1nc(C)c(-c2ccc(SCC(=O)Nc3ccc(Cl)c(Cl)c3)nn2)s1 | inactive: 64% |

| SMILES | survival |
| --- | --- |
| COc1ccccc1NC(=O)N1c2ccccc2Sc2ccccc21 | active: -1% |
| COc1ccc(OC)c(-n2nnc3c(sc4nc(C)c(Br)c(C)c43)c2=O)c1 | inactive: 81% |
| COc1ccccc1NC(=O)N(Cc1cc2c(C)ccc(C)c2[nH]c1=O)CC1CCCO1 (stereo not drawn) | inactive: 117% |
| COCCCNC(=O)CCCn1c(SCC(=O)c2ccc(F)cc2)nc2c(sc3ccccc32)c1=O | inactive: 103% |
| COc1ccc(CNC(=O)CSc2ncc3c(n2)-c2ccc(Cl)cc2N(Cc2ccc(F)cc2)S3(=O)=O)cc1OC | inactive: 118% |
| CCOc1cc(Br)cc(C2NC(=O)c3c(sc4c3CCN(C)C4)N2)c1O (stereo not drawn) | inactive: 84% |
| CCC1CCCCN1C(=O)c1cc2cc(OC)ccc2oc1=O (stereo not drawn) | inactive: 108% |
| CC(C)(C)c1ccc(C(=O)NCC(c2ccco2)S(=O)(=O)c2ccc(F)cc2)cc1 (stereo not drawn) | inactive: 131% |
| CCCCNc1c2c(c(C#N)c3nc4ccccc4n13)CCC2 | inactive: 106% |
| CN(C)c1ccc(CNC(=O)c2ccc(Cn3c(=O)c4cccn4c4cccnc43)cc2)cc1 | inactive: 87% |
| CCOC(=O)c1ccc(NC(=O)CSc2nnc3c4ccccc4n(CC)c3n2)cc1 | inactive: 81% |
| O=C(CSc1c2c(nc3ccccc13)CCC2)Nc1ccc(F)cc1 | inactive: 111% |
| COc1ccc(Cn2c(C(=O)O)c(CNCc3ccco3)c3ccc(OC)cc32)cc1 | inactive: 84% |
| CC(C)c1c(O)c2ccccc2[nH]c1=O | inactive: 118% |
| COc1ccc(-n2cnc3cc(C(=O)NC4CCCC4)ccc32)cc1 | inactive: 73% |
| Cc1ccc(Cn2c(CNC(=O)CCc3ccccc3)nc3cccnc32)cc1 | inactive: 99% |
| Cc1cccc(N2CCN(Cc3nnc(-c4ccccc4C)o3)CC2C)c1 (stereo not drawn) | inactive: 21% |
| COc1ccc(C2=Nc3ccc(F)cc3NC(c3cccc(C(F)(F)F)c3)=N2)cc1 | inactive: 63% |
| CCCOc1ccc(C(=O)N(Cc2ccccc2Cl)C2CCS(=O)(=O)C2)cc1 (stereo not drawn) | inactive: 98% |
| CCc1ccc2ncc(C(=O)c3ccc(C)c(C)c3)c(N3CCC(C(N)=O)CC3)c2c1 | inactive: 102% |
| COC(=O)c1ccccc1NC(=O)c1cnc(Nc2ccc(OC)cc2)c2ccccc12 | inactive: 68% |
| CCCCOc1cccc(C(=O)N(Cc2ccc(N(C)C)cc2)C2CCS(=O)(=O)C2)c1 (stereo not drawn) | inactive: 83% |

| SMILES | survival |
| --- | --- |
| Cc1cc(-c2nc3ncccc3o2)ccc1NC(=O)c1ccccc1Br | inactive: 50% |
| O=C(Cn1cnc(S(=O)(=O)N2CCCC2)c1)Nc1cccc(Br)c1 | inactive: 73% |
| NC(=O)c1nsc(C(=O)N(CC(=O)NCc2ccc3c(c2)OCO3)C2CCCCC2)c1N | inactive: 106% |
| O=C(COc1ccc(F)cc1)NCC(c1ccc(Cl)cc1)N1CCCCC1 (stereo not drawn) | inactive: 111% |
| Cc1ccc(CCNC(=O)CCCn2c(=O)c3ccccc3n(Cc3ccccc3C)c2=O)cc1 | inactive: 94% |
| CC(=O)N1c2ccc(S(=O)(=O)N3CCCCCC3)cc2CC1C(=O)NCc1ccccc1C (stereo not drawn) | inactive: 67% |
| COc1cc(OC)c(-c2cc(C(=O)NCc3ccc(F)cc3)c3c(-c4ccccc4)[nH]nc3n2)cc1OC | inactive: 120% |
| COc1ccc(CCNC(=O)Cn2c(=O)n(-c3ccccc3)c(=O)c3c(C)c(C)sc32)cc1OC | inactive: 97% |
| O=C(Nc1ccc2c(c1)CCCN2C(=O)c1cccs1)c1ccccc1 | inactive: 113% |
| O=C(Cn1c(=O)n(Cc2ccccc2)c(=O)c2sc3ccccc3c21)Nc1ccccc1F | inactive: 104% |
| O=C(NC1CCCc2ccccc21)c1ccc2c(c1)sc1nc(-c3ccccc3)cn12 (stereo not drawn) | inactive: 88% |
| CC(C)C1N=C2c3ccccc3N=C(SCC(=O)NCc3ccc(Cl)cc3)N2C1=O (stereo not drawn) | inactive: 83% |
| COc1ccc(-n2nc(C(=O)N3CCN(c4ccccc4OC)CC3)c3c4ccccc4n(C)c3c2=O)cc1Cl | inactive: 126% |
| COc1ccccc1CNC(=O)CCCN1C(=O)CSc2c1c(C)nn2-c1ccccc1 | inactive: 91% |
| CC(=O)N1CCOc2cc(S(=O)(=O)NCc3ccc(F)cc3)c(C)cc21 | inactive: 83% |
| CCOc1ccccc1NC(=O)C1CCN(S(=O)(=O)c2cccs2)CC1 | inactive: 93% |
| CC(CNC(=O)CCc1cn(Cc2ccccc2Cl)c2ccccc12)c1ccccc1 (stereo not drawn) | inactive: 83% |
| COc1cccc(Oc2nc(C)nc3c2oc2ccccc23)c1 | inactive: 19% |
| Cc1c(C(=O)NCc2cccc(Cl)c2)sc2nc[nH]c(=O)c12 | inactive: 81% |
| Cc1nc(N2CCCC2)c2c(C(=O)Nc3cccc(Cl)c3)c(C)oc2n1 | active: -3% |
| CCCS(=O)(=O)c1nc(S(=O)(=O)c2ccc(C)cc2)c(NCc2ccccc2Cl)s1 | inactive: 128% |
| CCOc1ccc(NC(=O)Cn2ccn3nc(-c4ccc(OC)c(OC)c4)cc3c2=O)cc1 | inactive: 124% |
